± gives the standard deviation of the averaged measurements. The list shows a part of the results.
What follows are sequences tested on PfAP2-EXP AP2 domain (GST-tagged) (assay: gcPBM binding intensity (ln(normalized median fluorescence intensity)); higher = stronger DNA binding).
Method in brief: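 Binding intensity is the highest Masliner-normalised natural-log median intensity over replicate spots in either probe orientation. To obtain it, GST-tagged P. falciparum DNA-binding domains made in E. coli were incubated for 1 h on an Agilent 4 × 180k array of primer-extended double-stranded 36-bp intergenic genomic probes plus negative controls. Detection used Alexa488 anti-GST antibody with scanning at 488 nm.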
In the case of “ACAAAACTGTCTTTCACACAGAAATAAAAAAAAAAA [CACACA_site5829]”, the “gcPBM binding intensity (ln)” value is reported as 8.43 ± 0.59.
With “ACATAAGATGAAAAATGTACATTCAAAAAATGAAAT [XGTACX_site3227]” the “gcPBM binding intensity (ln)” value was 8.81 ± 0.3.
For “TAAATATATAATAAATGTACATATTAATATTATGGT [XGTACX_site1498]”, the “gcPBM binding intensity (ln)” value was 8.71 ± 0.33.
“CAATGTTAACATATTACACACATATGTATTTATAAC [CACACA_site7314]” was tested, and the “gcPBM binding intensity (ln)” value was 8.67 ± 0.34.
In the case of “AAAAAAAATTTAATTGCACACAGGAAAATATAATTT [CACACA_site3810]”, the “gcPBM binding intensity (ln)” value is reported as 8.61 ± 0.35.
With “TAAATACAGAGGAAAATACACACGTATATATATAAA [CACACA_site3410]” the “gcPBM binding intensity (ln)” value was 8.68 ± 0.37.
“TTAATACCCAGACACACACACACAAAATAAAATACA [CACACA_site7968]” was tested, and the “gcPBM binding intensity (ln)” value was 8.72 ± 0.63.
“TATAAATATACAAACACACATACAAACATATATATA [CACACA_site1120]” was tested, and the “gcPBM binding intensity (ln)” value was 8.86 ± 0.31.
“TTTTTTTAATGATATTGTACATTAATAAAAAATATG [XGTACX_site1719]” was tested, and the “gcPBM binding intensity (ln)” value was 8.27 ± 0.21.
For “TCTTTTTCAAGATGACGTACTTAGATTAATATAAAA [XGTACX_site3931]”, the “gcPBM binding intensity (ln)” value was 8.36 ± 0.39.
For “ATTTGATATATAATAATACACACTTACATAATTAAT [CACACA_site290]”, the “gcPBM binding intensity (ln)” value was 8.4 ± 0.32.
For “ATATGATCATTTTATCATTTTGCTTTTTCTTTTTTT [CACACA_negctrl_site1325]”, the “gcPBM binding intensity (ln)” value was 8.77 ± 0.39.
With “AATTTTGGAACGTGCACACATATGTAATATATATAT [CACACA_site3067]” the “gcPBM binding intensity (ln)” value was 9.58 ± 0.085.
With “ATCGTGTTAAATGTTGTGCACATATAAATTACAAAA [GTGCAC_site9822]” the “gcPBM binding intensity (ln)” value was 9.06 ± 0.014.
“TTATATTCTTTTCTCTTTCTACTTTTTTTTTTTTTT [XGTACX_negctrl_site317]” was tested, and the “gcPBM binding intensity (ln)” value was 8.6 ± 0.59.
In the case of “AAGAAAAACTTATATATATATATATATATATATATA [TGCATGCA_negctrl_site466]”, the “gcPBM binding intensity (ln)” value is reported as 10.3 ± 0.29.
With “TCATACATGTATATGTGTACATATAATGTATATTCC [XGTACX_site6082]” the “gcPBM binding intensity (ln)” value was 8.3 ± 0.3.
For “AAAAAAAAAAAAAAAAGTACAAAAAGAAGAAAAAAA [XGTACX_site6521]”, the “gcPBM binding intensity (ln)” value was 8.63 ± 0.52.
“AAAATATAGGTATGCACACACATATACTTCTGTGCA [CACACA_site1409]” was tested, and the “gcPBM binding intensity (ln)” value was 8.63 ± 0.36.
For “TTTTTTTTTTTTACGTGTACATAAATGTTAAGTAAT [XGTACX_site3901]”, the “gcPBM binding intensity (ln)” value was 8.64 ± 0.44.
In the case of “TTTTTTTTTTTTTTTTTTTTTTTATGTTCTTAAAAA [GTGCAC_negctrl_site62]”, the “gcPBM binding intensity (ln)” value is reported as 8.02 ± 0.67.
With “TATAAATATTTATGTACACACATATACATGTTGAAT [CACACA_site5684]” the “gcPBM binding intensity (ln)” value was 8.64 ± 0.24.
“TACATATATATATTATGTACATAAGGTTTGAGTTCA [XGTACX_site2726]” was tested, and the “gcPBM binding intensity (ln)” value was 8.69 ± 0.45.
“GAAAAAAAAGCTTGCACACGTATTTGCTTTATGTAT [CACACA_site4931]” was tested, and the “gcPBM binding intensity (ln)” value was 8.64 ± 0.5.
In the case of “TTTTTGGTATTATTGTGTACTTATAAATAATATAAT [XGTACX_site4019]”, the “gcPBM binding intensity (ln)” value is reported as 8.64 ± 0.4.
In the case of “CAAGTAGATATTATACGTACATATATATATATATAT [XGTACX_site8349]”, the “gcPBM binding intensity (ln)” value is reported as 10.2 ± 0.32.
With “ATATAAAATATTACGTGTACACATAAATAAAAATAA [XGTACX_site3746]” the “gcPBM binding intensity (ln)” value was 8.83 ± 0.24.
“ATATTTTGTAACTATACACACATATTTATATTATAA [CACACA_site7433]” was tested, and the “gcPBM binding intensity (ln)” value was 8.39 ± 0.45.
For “ATATATATAAATAATTGTACATAATAATAAAATATA [XGTACX_site4839]”, the “gcPBM binding intensity (ln)” value was 8.65 ± 0.44.
For “TAAAAAATATACATTCGTACATATATATTATATATA [XGTACX_site7918]”, the “gcPBM binding intensity (ln)” value was 8.12 ± 0.25.
“TTTTATACATATTTTACACACTAAAATATACCTATA [CACACA_site6286]” was tested, and the “gcPBM binding intensity (ln)” value was 8.62 ± 0.4.
For “AATAAACATAAATAAAAATTATAAAATATATATATG [CACACA_negctrl_site1709]”, the “gcPBM binding intensity (ln)” value was 8.38 ± 0.32.
With “ATATATATATATATTACACACTTTTTCTTTTTTTTT [CACACA_site2780]” the “gcPBM binding intensity (ln)” value was 10.1 ± 0.11.
With “ATAATTCCAAGAATTTCATATATCTGAATTTTAGGT [GTGCAC_negctrl_site283]” the “gcPBM binding intensity (ln)” value was 8.02 ± 0.4.
With “TTTACATTTCAGTAGACACACAAAAAATAATACTAA [CACACA_site512]” the “gcPBM binding intensity (ln)” value was 8.54 ± 0.47.
With “AAAAAAAAATATACATATATATATATATATATATAT [CACACA_negctrl_site1763]” the “gcPBM binding intensity (ln)” value was 10 ± 0.5.
For “TATACACTTATTGGTGGTACAATATATAAATATATG [XGTACX_site3289]”, the “gcPBM binding intensity (ln)” value was 8.36 ± 0.23.
In the case of “CAAAAGTAAGCACGCACACACAACATGAAATAAAAT [CACACA_site165]”, the “gcPBM binding intensity (ln)” value is reported as 8.9 ± 0.55.
For “ATTAGTATAATGTAACTTAGTTAATAGTGCTAATAT [CACACA_negctrl_site764]”, the “gcPBM binding intensity (ln)” value was 8.65 ± 0.29.
With “TATATATATATTTATACACACACATATATTTATATA [CACACA_site8054]” the “gcPBM binding intensity (ln)” value was 9.47 ± 0.071.
In the case of TTTTTAATATATTAGGTGCACAATAATACACTTTAT, the “gcPBM binding intensity (ln)” value is reported as 8.99 ± 0.19.
In the case of “AAAAAAAAAAAAAAAACACACACATGCACATCATAT [CACACA_site8083]”, the “gcPBM binding intensity (ln)” value is reported as 8.95 ± 0.18.
With “TATATTTATAACAACACACACAGATCATAAAACTGC [CACACA_site7086]” the “gcPBM binding intensity (ln)” value was 8.79 ± 0.45.
For “ACAAAATAAAACATCTGTACATATTATTATTATAAG [XGTACX_site4802]”, the “gcPBM binding intensity (ln)” value was 8.34 ± 0.35.
